In patent US20180305463A1 (NAVIGO PROTEINS, published 2018):

Molecular target: Cetuximab
Test: ELISA; antibody coated on plate, binder detected via Strep-tag with Strep-Tactin-HRP

Row | Binder | Kd
1 | IgG binding protein SEQ ID NO: 14 (shuffle sequence IB14) (designed binder) PAAKHDKDQQSAFYEILHLPNLTEDQRSAFIQSLKDDPSVSKEILGEAKKLNDAQAPPASPAPSAPSACWSHPQFEK | 4.9 nM

Molecular target: T1, hIgG1-Fc (human, UniProt P01857-1 99-330 = IgG part)
T1 construct: domain: Fc
Test: SPR (Biacore), 0-50 nM binder

Row | Binder | Kd
2 | IgG binding protein SEQ ID NO: 28 (shuffle sequence IB27) (designed binder, also called CID 154256) NAAKFDEAQQSAFYEILHLPNLTEEQRNAFIQSLKDDPSVSKEVLGEAQKLNDSQAPKASPAPSAPSACWSHPQFEK | 3.1 nM

Molecular target: T1, hIgG1-Fc
Test: SPR (Biacore 3000, CM5 chip, Langmuir 1:1 model)

Row | Binder | Kd
3 | IgG binding protein SEQ ID NO: 28 (shuffle sequence IB27) (designed binder, also called CID 154256) NAAKFDEAQQSAFYEILHLPNLTEEQRNAFIQSLKDDPSVSKEVLGEAQKLNDSQAPKASPAPSAPSACWSHPQFEK | 3 nM
4 | IB14 dimer (SEQ ID NO: 45) (designed binder, also called CID 150570) MPAAKHDKDQQSAFYEILHLPNLTEDQRSAFIQSLKDDPSVSKEILGEAKKLNDAQAPPSAAPAPSAPASAAPAPAPAPAPSPAAPAASPAAKHDKDQQSAFYEILHLPNLTEDQRSAFIQSLKDDPSVSKEILGEAKKLNDAQAPPASPSPAAPAPAPSAASPAPAAPAPAASPAAAACAWSHPQFEK | 0.38 nM
5 | IB14 tetramer (SEQ ID NO: 46) (designed binder, also called CID 150663) MPAAKHDKDQQSAFYEILHLPNLTEDQRSAFIQSLKDDPSVSKEILGEAKKLNDAQAPPSAAPAPSAPASAAPAPAPAPAPSPAAPAASPAAKHDKDQQSAFYEILHLPNLTEDQRSAFIQSLKDDPSVSKEILGEAKKLNDAQAPPASPSPAAPAPAPSAASPAPAAPAPAASPAAPAAKHDKDQQSAFYEILHLPNLTEDQRSAFIQSLKDDPSVSKEILGEAKKLNDAQAPPSAAPAPSAPASAAPAPAPAPAPSPAAPAASPAAKHDKDQQSAFYEILHLPNLTEDQRSAFIQSLKDDPSVSKEILGEAKKLNDAQAPPASPSPAAPAPAPSAASPAPAAPAPAASPAAAACAWSHPQFEK | 0.09 nM
6 | IB14 hexamer (SEQ ID NO: 47) (designed binder, also called CID 150772) MPAAKHDKDQQSAFYEILHLPNLTEDQRSAFIQSLKDDPSVSKEILGEAKKLNDAQAPPSAAPAPSAPASAAPAPAPAPAPSPAAPAASPAAKHDKDQQSAFYEILHLPNLTEDQRSAFIQSLKDDPSVSKEILGEAKKLNDAQAPPASPSPAAPAPAPSAASPAPAAPAPAASPAAPAAKHDKDQQSAFYEILHLPNLTEDQRSAFIQSLKDDPSVSKEILGEAKKLNDAQAPPSAAPAPSAPASAAPAPAPAPAPSPAAPAASPAAKHDKDQQSAFYEILHLPNLTEDQRSAFIQSLKDDPSVSKEILGEAKKLNDAQAPPASPSPAAPAPAPSAASPAPAAPAPAASPAAPAAKHDKDQQSAFYEILHLPNLTEDQRSAFIQSLKDDPSVSKEILGEAKKLNDAQAPPSAAPAPSAPASAAPAPAPAPAPSPAAPAASPAAKHDKDQQSAFYEILHLPNLTEDQRSAFIQSLKDDPSVSKEILGEAKKLNDAQAPPASPSPAAPAPAPSAASPAPAAPAPAASPAAAACAWSHPQFEK | 0.16 nM
7 | IgG binding protein SEQ ID NO: 26 (shuffle sequence IB25) (designed binder, also called CID 154254) NAAKHDKDQQSAFYEILHLPNLTEDQRNAFIQSLKDDPSVSKEILGEAKKLNDAQAPPASPAPSAPSACWSHPQFEK | 4.6 nM
8 | IgG binding protein SEQ ID NO: 14 (shuffle sequence IB14) (designed binder) PAAKHDKDQQSAFYEILHLPNLTEDQRSAFIQSLKDDPSVSKEILGEAKKLNDAQAPPASPAPSAPSACWSHPQFEK | 1.3 nM
9 | IgG binding protein SEQ ID NO: 27 (shuffle sequence IB26) (designed binder, also called CID 154255) NAAQHDKDQQSAFYEILHLPNLTEEQRNAFIQSLKDDPSVSKEILAEAKKLNDAQAPKASPAPSAPSACWSHPQFEK | 5.3 nM
10 | IgG binding protein SEQ ID NO: 13 (shuffle sequence IB13) (designed binder) PAAQHDKDQQSAFYEILHLPNLTEDQRSAFIQSLKDDPSVSKEILGEAKKLNDAQAPPASPAPSAPSACWSHPQFEK | 1.2 nM
11 | IgG binding protein SEQ ID NO: 24 (shuffle sequence IB24) (designed binder, also called CID 154253) NAAQHDKEQQNAFYEILHLPNLTEDQRNAFIQSLKDDPSVSKEILGEAKKLNDAQAPKASPAPSAPSACWSHPQFEK | 1.4 nM
12 | IgG binding protein SEQ ID NO: 30 (shuffle sequence IB28) (designed binder, also called CID 154257) VDAQHDEDQQSAFYEILHLPNLTEEQRNAFIQSLKDDPSQSAEILAEAKKLNESQAPKASPAPSAPSACWSHPQFEK | 7.6 nM

Molecular target: Natalizumab
Test: ELISA; IgG4 antibody coated on plate, binder detected via Strep-tag with Strep-Tactin-HRP

Row | Binder | Kd
13 | IgG binding protein SEQ ID NO: 20 (shuffle sequence IB20) (designed binder) ADSKFDEAQQSAFYEILHLPSLTEDQRAAFIQSLKDDPSTSKSLLGEAKKLNDAQAPPASPAPSAPSACWSHPQFEK | 5.4 nM
14 | IgG binding protein SEQ ID NO: 11 (shuffle sequence IB11) (designed binder) NAAQHSKEQQNAFYEILHLPNLTEDQRSAFIQSLKDDPSVSKEILGEAKKLNDAQAPPASPAPSAPSACWSHPQFEK | 7.1 nM
